The text below walks through data of paper PMC10121161, “Delivering a toxic metal to the active site of urease” (Science Advances, 2023).

The data set concerns the molecule itself. Put plainly: cryo-EM structure; HpUreFD/urease complex coexpressed in E. coli, purified by Strep-Tactin XT and Superose-6 SEC in 50 mM Hepes, 200 mM NaCl, 0.5 mM TCEP (pH 7.5); 0.5 mg/ml on grids; tetrahedral symmetry; 2.3 Å.

For orientation: stoichiometry N means the number of molecules, sites or subunits per partner or assembly.

B1: H. pylori urease (HpUreAB), in the cryo-EM sample (complex)
chain 1: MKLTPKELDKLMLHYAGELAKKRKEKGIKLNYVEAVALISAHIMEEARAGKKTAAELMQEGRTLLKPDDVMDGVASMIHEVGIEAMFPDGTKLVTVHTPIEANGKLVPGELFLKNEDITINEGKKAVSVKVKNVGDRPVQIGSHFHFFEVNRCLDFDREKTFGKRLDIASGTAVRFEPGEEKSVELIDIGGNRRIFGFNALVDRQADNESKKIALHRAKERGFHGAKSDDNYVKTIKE
chain 2: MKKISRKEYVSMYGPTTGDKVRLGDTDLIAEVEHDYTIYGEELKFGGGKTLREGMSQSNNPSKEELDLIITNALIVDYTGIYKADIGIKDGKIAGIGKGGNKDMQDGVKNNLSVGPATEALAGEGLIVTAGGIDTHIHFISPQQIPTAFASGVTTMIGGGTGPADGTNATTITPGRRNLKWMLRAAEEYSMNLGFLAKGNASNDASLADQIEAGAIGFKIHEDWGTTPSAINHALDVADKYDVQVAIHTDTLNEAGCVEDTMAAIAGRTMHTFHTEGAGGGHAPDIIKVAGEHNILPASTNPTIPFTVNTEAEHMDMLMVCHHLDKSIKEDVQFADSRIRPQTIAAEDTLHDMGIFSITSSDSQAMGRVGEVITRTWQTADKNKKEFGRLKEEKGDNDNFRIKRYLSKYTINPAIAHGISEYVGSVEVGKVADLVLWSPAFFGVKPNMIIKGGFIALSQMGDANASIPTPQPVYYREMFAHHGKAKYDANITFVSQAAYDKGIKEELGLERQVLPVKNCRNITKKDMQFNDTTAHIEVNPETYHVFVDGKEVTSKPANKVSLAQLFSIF
notes: Helicobacter pylori urease subunit HpUreA (γ and β domains); Helicobacter pylori urease subunit HpUreB (α domain); dodecamer of HpUreAB catalytic units (four trimers); copies: 12 + 12
For B1, the “stoichiometry N” value came to 12.
